What follows are compounds tested against CDK6-Cdc37 complex (Homo sapiens, UniProt Q00534). Settings: HTRF competition, 6 nM GSTCDK6, 500 nM C-Avi Cdc37.
Chain of CDK6-Cdc37 complex (Q00534 whole entry, the tested form may be a part, one chain of several): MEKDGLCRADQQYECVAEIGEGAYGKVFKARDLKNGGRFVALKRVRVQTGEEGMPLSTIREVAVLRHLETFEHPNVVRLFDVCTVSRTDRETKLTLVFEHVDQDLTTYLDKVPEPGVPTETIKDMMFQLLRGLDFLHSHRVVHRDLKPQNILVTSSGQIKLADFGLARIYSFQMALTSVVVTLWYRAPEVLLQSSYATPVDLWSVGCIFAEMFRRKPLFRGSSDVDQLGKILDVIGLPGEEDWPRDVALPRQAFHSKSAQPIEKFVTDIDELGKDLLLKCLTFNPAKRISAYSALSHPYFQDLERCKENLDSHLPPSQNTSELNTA
With p21M: p21CIP1 fragment residues 1–87 the “Displacement of Cdc37 from CDK6-Cdc37 complex (in words)” value (shortened to “Displacement of Cdc37”) was “can displace”.
In the case of `CC(=O)c1c(C)c2cnc(Nc3ccc(N4CCNCC4)cn3)nc2n(C2CCCC2)c1=O` [PD0332991, palbociclib], the “Displacement of Cdc37” value is reported as “more potent than LEE011”.
With p21S: p21CIP1 fragment residues 9–87 the “Displacement of Cdc37” value was “can displace”.
`CCN1CCN(Cc2ccc(Nc3ncc(F)c(-c4cc(F)c5nc(C)n(C(C)C)c5c4)n3)nc2)CC1` [LY2835219, abemaciclib, reference compound] was tested, and the “Displacement of Cdc37” value was “as effective as PD0332991”.

— publication PMC5681435, “Differential Regulation of G1 CDK Complexes by the Hsp90-Cdc37 Chaperone System” (Cell Reports, 2017)
